In a collection of fitness landscapes (doi:10.1016/j.celrep.2020.107928):
Over roughly 81,000 sequences, “one-hybrid fitness for binding NBS DNA” has its median near -0.1; the highest 2% begin near 0.36. This is one part of the list.

B1: Caulobacter ParB omega fusion; a variant is named by its letters at X, in order, B8GW30 (parent)
chain: MESVVVGEPGMSEGRRGLGRGLSALLGEVDAAPAQAPGEQLGGSREAPIEILQRNPDQPRRTFREEDLEDLSNSIREKGVLQPILVRPSPDTAGEYQIVAGERAWRAAQRAGLKTVPIMVRELDDLAVLEIGIIENVQRADLNVLEEALSYKVLMEKFERTQENIAQTIGKSXSHVANXMRLLXLPDEVQSYLVSGELTAXHARAIAAAADPVALAKQIIEGGLSVRETEALARKAPNLSAGKSKGGRPPRVKDTDTQALESDLSSVLGLDVSIDHRGSTGTLTITYATLEQLDDLCNRLTRGI

Variants of: B1
Assay: one-hybrid fitness for binding NBS DNA (the Noc-binding site; scaled: cognate 1, non-cognate 0); higher = stronger binding
Details: with NBS DNA site
Outline: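 Caulobacter ParB libraries with four specificity codons randomised were screened by bacterial one-hybrid selection in the E. coli USO strain, using a HIS3 reporter whose site lies 19 bp from the promoter. Selection ran for 48 hours at 37°C on M9 lacking histidine, with 0.1 mM IPTG and 5 mM 3-AT. Plasmids were Illumina-sequenced before and after selection, three replicate libraries were pooled, and variants with under 10 reads were dropped. Fitness is the log change in each variant's read ratio to wild type, rescaled against the cognate and non-cognate sites.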

| Variant | one-hybrid fitness for binding NBS DNA |
| --- | --- |
| TPKH | ≤ 0.2 |
| QKWC | ≤ 0.2 |
| GTIW | ≤ 0.2 |
| KMKT | 0.27 |
| QQFA | 0.201 |
| KFSR | ≤ 0.2 |
| LLTC | ≤ 0.2 |
| DMIG | ≤ 0.2 |
| RMEV | ≤ 0.2 |
| AVTQ | ≤ 0.2 |
| LCMC | ≤ 0.2 |
| GFAC | ≤ 0.2 |
| CLEV | ≤ 0.2 |
| RWWW | ≤ 0.2 |
| YGWY | ≤ 0.2 |
| CQAT | ≤ 0.2 |
| NGLI | ≤ 0.2 |
| KYYN | ≤ 0.2 |
| DASS | ≤ 0.2 |
| PTPL | ≤ 0.2 |
| RSGT | 0.425 |
| GVIT | ≤ 0.2 |
| LFKC | ≤ 0.2 |
| AMYT | ≤ 0.2 |

| Variant | one-hybrid fitness for binding NBS DNA |
| --- | --- |
| GYPT | ≤ 0.2 |
| RVHL | ≤ 0.2 |
| AFHM | ≤ 0.2 |
| DEGF | ≤ 0.2 |
| WGKG | ≤ 0.2 |
| TPIG | ≤ 0.2 |
| KRLA | 0.224 |
| TYER | ≤ 0.2 |
| YYLS | ≤ 0.2 |
| NVNS | ≤ 0.2 |
| ALHM | ≤ 0.2 |
| TYYC | ≤ 0.2 |
| YPKP | ≤ 0.2 |
| TVWA | ≤ 0.2 |
| RLMH | ≤ 0.2 |
| KYYS | ≤ 0.2 |
| RPDM | ≤ 0.2 |
| CKAG | ≤ 0.2 |
| CDEF | ≤ 0.2 |
| DYNR | ≤ 0.2 |
| REWN | ≤ 0.2 |
| YWER | ≤ 0.2 |
| RTAK | ≤ 0.2 |
| QKCN | ≤ 0.2 |

| Variant | one-hybrid fitness for binding NBS DNA |
| --- | --- |
| CASW | ≤ 0.2 |
| DPKA | ≤ 0.2 |
| PMVE | ≤ 0.2 |
| QNAI | ≤ 0.2 |
| TANC | ≤ 0.2 |
| LFSC | ≤ 0.2 |
| HNGG | ≤ 0.2 |
| PPDM | ≤ 0.2 |
| RTKE | ≤ 0.2 |
| PNLE | ≤ 0.2 |
| HTAS | ≤ 0.2 |
| HHSS | ≤ 0.2 |
| ACRT | ≤ 0.2 |
| AGGL | ≤ 0.2 |
| QKHT | 0.549 |
| SSGM | ≤ 0.2 |
| PEQG | ≤ 0.2 |
| TRSD | ≤ 0.2 |
| KPLS | ≤ 0.2 |
| RGSY | ≤ 0.2 |
| YCKC | ≤ 0.2 |
| MRWG | ≤ 0.2 |
| TYWM | ≤ 0.2 |
| RETR | ≤ 0.2 |

| Variant | one-hybrid fitness for binding NBS DNA |
| --- | --- |
| DCLK | ≤ 0.2 |
| RPWL | ≤ 0.2 |
| DRVL | ≤ 0.2 |
| LRNI | ≤ 0.2 |
| GTPE | ≤ 0.2 |
| SLTE | ≤ 0.2 |
| RTWW | ≤ 0.2 |
| QYRQ | 0.435 |
| FGMV | ≤ 0.2 |
| TEPV | ≤ 0.2 |
| QGGR | ≤ 0.2 |
| PCRH | ≤ 0.2 |
| PWTN | ≤ 0.2 |
| TTLA | ≤ 0.2 |
| QPIM | ≤ 0.2 |
| NTCG | ≤ 0.2 |
| SDYR | ≤ 0.2 |
| MLKH | ≤ 0.2 |
| PVNH | ≤ 0.2 |
| QVRQ | 0.203 |
| PHTI | ≤ 0.2 |
| CMWL | ≤ 0.2 |
| LWHL | ≤ 0.2 |
| QSNL | ≤ 0.2 |

| Variant | one-hybrid fitness for binding NBS DNA |
| --- | --- |
| MWHC | ≤ 0.2 |
| PARV | ≤ 0.2 |
| QNTM | ≤ 0.2 |
| KCRR | 0.46 |
| TGHI | ≤ 0.2 |
| GGGR | ≤ 0.2 |
| VQPG | ≤ 0.2 |
| FERC | ≤ 0.2 |
| FRAQ | ≤ 0.2 |
| SPAL | ≤ 0.2 |
| LWLS | ≤ 0.2 |
| HLVM | ≤ 0.2 |
| DDNG | ≤ 0.2 |
| GCMQ | ≤ 0.2 |
| FPDG | ≤ 0.2 |
| QGSH | ≤ 0.2 |
| RGRL | ≤ 0.2 |
| LMPM | ≤ 0.2 |
| TAYW | ≤ 0.2 |
| MAFV | ≤ 0.2 |
| GYCR | ≤ 0.2 |
| KPHF | ≤ 0.2 |
| NDWV | ≤ 0.2 |
| WIHC | ≤ 0.2 |

| Variant | one-hybrid fitness for binding NBS DNA |
| --- | --- |
| RIYT | 0.34 |
| KLDT | ≤ 0.2 |
| IHGD | ≤ 0.2 |
| MTHT | ≤ 0.2 |
| QSEA | ≤ 0.2 |
| IDTM | ≤ 0.2 |
| SVRI | ≤ 0.2 |
| LSAW | ≤ 0.2 |
| RGRK | ≤ 0.2 |
| RNCN | ≤ 0.2 |
| RITS | 0.384 |
| TLDF | ≤ 0.2 |
| QMSG | ≤ 0.2 |
| VNAC | ≤ 0.2 |
| RDWM | ≤ 0.2 |
| QYKQ | 0.394 |
| DALT | ≤ 0.2 |
| ALQE | ≤ 0.2 |
| QLAL | ≤ 0.2 |
| VGSL | ≤ 0.2 |
| DDRN | ≤ 0.2 |
| LVRI | ≤ 0.2 |
| ALAR | ≤ 0.2 |
| TSQN | ≤ 0.2 |

| Variant | one-hybrid fitness for binding NBS DNA |
| --- | --- |
| TCKQ | ≤ 0.2 |
| CNAC | ≤ 0.2 |
| LMRV | ≤ 0.2 |
| HIRC | ≤ 0.2 |
| GQSG | ≤ 0.2 |
| PMSN | ≤ 0.2 |
| RVHH | ≤ 0.2 |
| RTRK | 0.252 |
| APIG | ≤ 0.2 |
| NVTG | ≤ 0.2 |
| GMSA | ≤ 0.2 |
| VQVT | ≤ 0.2 |
| HKCS | ≤ 0.2 |
| QAVS | 0.226 |
| MSSF | ≤ 0.2 |
| DHSK | ≤ 0.2 |
| NSNI | ≤ 0.2 |
| WETR | ≤ 0.2 |
| ETSY | ≤ 0.2 |
| SFAL | ≤ 0.2 |
| TKQQ | ≤ 0.2 |
| GSIP | ≤ 0.2 |
| DGSA | ≤ 0.2 |
| NRFA | ≤ 0.2 |

| Variant | one-hybrid fitness for binding NBS DNA |
| --- | --- |
| WSFR | ≤ 0.2 |
| PIGY | ≤ 0.2 |
| EFKC | ≤ 0.2 |
| QITC | ≤ 0.2 |
| YALG | ≤ 0.2 |
| MFIR | ≤ 0.2 |
| ADHL | ≤ 0.2 |
| QSPP | ≤ 0.2 |
| QMDF | ≤ 0.2 |
| HQPV | ≤ 0.2 |
| HTRY | ≤ 0.2 |
| THVC | ≤ 0.2 |
| AYWI | ≤ 0.2 |
| SNHR | ≤ 0.2 |
| NIGS | ≤ 0.2 |
| TVVY | ≤ 0.2 |
| PNER | ≤ 0.2 |
| YCLR | ≤ 0.2 |
| SKCR | ≤ 0.2 |
| STIL | ≤ 0.2 |
| LNRS | ≤ 0.2 |
| EYHD | ≤ 0.2 |
| SKIM | ≤ 0.2 |
| PHGE | ≤ 0.2 |

| Variant | one-hybrid fitness for binding NBS DNA |
| --- | --- |
| RYRK | ≤ 0.2 |
| SAYQ | ≤ 0.2 |
| KLRC | ≤ 0.2 |
| IKCS | ≤ 0.2 |
| HING | ≤ 0.2 |
| CTCI | ≤ 0.2 |
| GDMC | ≤ 0.2 |
| TAEM | ≤ 0.2 |
| SPLI | ≤ 0.2 |
| AIHV | ≤ 0.2 |
| ILQN | ≤ 0.2 |
| LAWF | ≤ 0.2 |
| IQKR | 0.259 |
| RNYS | ≤ 0.2 |
| NPLM | ≤ 0.2 |
| GSGS | ≤ 0.2 |
| SYGT | ≤ 0.2 |
| AQPL | ≤ 0.2 |
| KWLS | ≤ 0.2 |
| KCTY | ≤ 0.2 |
| FWRG | ≤ 0.2 |
| TEKN | ≤ 0.2 |
| IGSL | ≤ 0.2 |
| THAH | ≤ 0.2 |

| Variant | one-hybrid fitness for binding NBS DNA |
| --- | --- |
| YCRS | ≤ 0.2 |
| PDSD | ≤ 0.2 |
| VTML | ≤ 0.2 |
| DSPV | ≤ 0.2 |
| HPME | ≤ 0.2 |
| IVGC | ≤ 0.2 |
| PADH | ≤ 0.2 |
| VMQF | ≤ 0.2 |
| KSPT | ≤ 0.2 |
| AHVW | ≤ 0.2 |
| VQVF | ≤ 0.2 |
| SHVL | ≤ 0.2 |
| DSKS | ≤ 0.2 |
| ADTL | ≤ 0.2 |
| NLLY | ≤ 0.2 |
| TSIG | ≤ 0.2 |
| NNQI | ≤ 0.2 |
| MITL | ≤ 0.2 |
| SASS | ≤ 0.2 |
| EHTV | ≤ 0.2 |
| LHHV | ≤ 0.2 |
| DMAV | ≤ 0.2 |
| METR | ≤ 0.2 |
| ERAD | ≤ 0.2 |

| Variant | one-hybrid fitness for binding NBS DNA |
| --- | --- |
| SEES | ≤ 0.2 |
| AYGR | ≤ 0.2 |
| LPTD | ≤ 0.2 |
| AMGT | ≤ 0.2 |
| KAPG | ≤ 0.2 |
| CVHS | ≤ 0.2 |
| DGSF | ≤ 0.2 |
| IGVF | ≤ 0.2 |
| TTLF | ≤ 0.2 |
| SIGG | ≤ 0.2 |
| EHRL | ≤ 0.2 |
| THYE | ≤ 0.2 |
| QENR | ≤ 0.2 |
| KRLW | ≤ 0.2 |
| DYTS | ≤ 0.2 |
| QPTG | ≤ 0.2 |
| NARW | ≤ 0.2 |
| RNYW | ≤ 0.2 |
| SDAA | ≤ 0.2 |
| MNVC | ≤ 0.2 |
| SEWA | ≤ 0.2 |
| VHKR | 0.277 |
| HGLV | ≤ 0.2 |
| HYRI | ≤ 0.2 |

| Variant | one-hybrid fitness for binding NBS DNA |
| --- | --- |
| LRWT | ≤ 0.2 |
| NDPI | ≤ 0.2 |
| YMMR | ≤ 0.2 |
| MDVV | ≤ 0.2 |
| PERL | ≤ 0.2 |
| DIPA | ≤ 0.2 |
| SKSR | ≤ 0.2 |
| TPIR | ≤ 0.2 |
| NNAR | ≤ 0.2 |
| KCKA | ≤ 0.2 |
| ESTN | ≤ 0.2 |
| HTRR | 0.244 |
| VAFR | ≤ 0.2 |
| HFRS | ≤ 0.2 |
| FLAR | ≤ 0.2 |
| RNYF | ≤ 0.2 |
| PMLA | ≤ 0.2 |
| PPTI | ≤ 0.2 |
| AAVY | ≤ 0.2 |
| RWRT | ≤ 0.2 |
| RQCL | ≤ 0.2 |
| MVST | ≤ 0.2 |
| AIWS | ≤ 0.2 |
| DMHR | ≤ 0.2 |

| Variant | one-hybrid fitness for binding NBS DNA |
| --- | --- |
| ARAP | ≤ 0.2 |
| HAFS | ≤ 0.2 |
| TDEV | ≤ 0.2 |
| PCHS | ≤ 0.2 |
| WATG | ≤ 0.2 |
| PFMY | ≤ 0.2 |
| PICS | ≤ 0.2 |
| STWE | ≤ 0.2 |
| MKTA | ≤ 0.2 |
| PNTK | ≤ 0.2 |
| NYYC | ≤ 0.2 |
| SRGY | ≤ 0.2 |
| TMKT | ≤ 0.2 |
| PFAR | ≤ 0.2 |
| LGGK | ≤ 0.2 |
| SWQF | ≤ 0.2 |
| VPAC | ≤ 0.2 |
| RFPG | ≤ 0.2 |
